Laboratory results from PubChem BioAssay AID881 (National Center for Advancing Translational Sciences (NCATS), 2007).
Hit rate of the full screen: of about 110,000 compounds, about 610 (0.55%) were called active. This list was built around the results that the source calls inconclusive (neither active nor inactive); the mix of calls is not that of the screen. The call rests on the fitted dose curve; in most records, active means well fitted inhibition curve with a large enough effect; inconclusive means small, poorly fitted or top-dose-only effect; inactive means no such curve, though single readings can be large or run the other way. A potency beside an inconclusive call is a rough fit, not a confirmed value.

Target: Polyunsaturated fatty acid lipoxygenase ALOX15B (Homo sapiens) (UniProt O15296)
UniProt O15296, sequence (O15296 whole entry, looked up): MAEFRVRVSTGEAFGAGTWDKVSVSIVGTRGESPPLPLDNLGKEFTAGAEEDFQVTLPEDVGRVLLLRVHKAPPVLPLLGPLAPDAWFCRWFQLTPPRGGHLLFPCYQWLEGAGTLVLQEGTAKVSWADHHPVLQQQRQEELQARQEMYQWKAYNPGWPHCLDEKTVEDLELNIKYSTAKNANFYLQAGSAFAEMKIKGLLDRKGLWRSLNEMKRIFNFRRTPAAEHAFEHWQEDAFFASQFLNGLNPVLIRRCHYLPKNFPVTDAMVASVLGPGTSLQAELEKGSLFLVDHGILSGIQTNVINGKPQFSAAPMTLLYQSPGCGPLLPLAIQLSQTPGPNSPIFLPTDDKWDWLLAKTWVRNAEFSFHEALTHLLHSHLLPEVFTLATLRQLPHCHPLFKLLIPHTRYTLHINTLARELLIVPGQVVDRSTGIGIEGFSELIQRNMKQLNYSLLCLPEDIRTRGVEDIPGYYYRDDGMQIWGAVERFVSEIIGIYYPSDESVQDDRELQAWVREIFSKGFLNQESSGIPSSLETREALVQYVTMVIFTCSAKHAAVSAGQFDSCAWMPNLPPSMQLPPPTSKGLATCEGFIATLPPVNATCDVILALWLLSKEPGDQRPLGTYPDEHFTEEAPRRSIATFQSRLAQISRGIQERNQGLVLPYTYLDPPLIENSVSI
Assay: qHTS Assay for Inhibitors of 15-hLO-2 (15-human lipoxygenase 2); further: nearly all actives have a fitted effect of over 60% in size
Details: purified 15hLO-2, xylenol orange hydroperoxide absorbance; activity change, negative = inhibition: at 57.1 µM (top of the series) unless noted
Summary of the method: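 Enzyme 50 nM, AA 45 uM, 25 mM Hepes pH 7.5 + 0.01% Triton X-100; cpd preinc 15 min RT, rxn 90 min RT; stop/detect with 200 uM XO + 300 uM Fe(II) in 50 mM H2SO4, 30 min; A573/A405.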
On the % scale 0 is the no-effect control and ±100 the full control effect; potency means the concentration at half of the fitted maximal effect; tags describe the fitted curve by direction and shape.

Row | Compound | activity change, negative = inhibition | Potency
1 | Cn1c(SCC(=O)Nc2ccc3cn[nH]c3c2)nnc1-c1cnccn1 | inactive: 2.23% | –
2 | COc1cc(/C=C2\SC(=S)N(Nc3ncc(C(F)(F)F)cc3Cl)C2=O)cc(OC)c1OC | – | inconclusive: 31.6 µM [inhibitor, single point]
3 | CCCCc1c2ccccc2nc2[nH]c3ccccc3c12 | inactive: 21.4% | –
4 | CCOc1cc(CNc2ccc(O)cc2)cc(Br)c1OCc1ccccc1F | inconclusive: -45.8% [inhibitor] [at 11.4 µM] | –
5 | CCOc1cccc(C=Nc2cc(C)cc(C)c2O)c1O | inactive: 12.6% | –
6 | CCSc1nnc(NC(=O)C(C)C)s1 | inactive: 1.81% | –
7 | Cc1cc(C)n2[nH]c(=O)c(N=Nc3ccccc3)c2n1 | – | inconclusive: 15.8 µM [inhibitor, partial curve]
8 | COc1cc(N2CCCC2)c(OC)cc1/C=C(/C#N)c1cccc(F)c1 | – | inconclusive: 10 µM [inhibitor, partial curve]
9 | COCCn1c(SCC(=O)OC(C)C)nnc1-c1ccccc1 | inactive: -2.59% | –
10 | O=S(=O)(c1ccc(Cl)s1)N1CCC(Cc2ccccc2)CC1 | inactive: 0.229% | –
11 | COc1cc(C2=NOC(C(=O)NCc3ccc(F)cc3)C2)cc(OC)c1OC (stereo not drawn) | inactive: -0.599% | –
12 | Clc1ccccc1-c1nnc2sc(-c3cccs3)nn12 | inactive: -22.4% | –
13 | O=c1c2c(-c3ccco3)csc2nc(SCc2cn3cccnc3n2)n1-c1ccccc1 | – | inconclusive: 15.8 µM [inhibitor, partial curve]
14 | N#Cc1c(NCc2ccccc2)ccnc1NCc1cccnc1 | inactive: 6.07% [at 11.4 µM] | –
15 | CCC(Sc1nnnn1-c1ccccc1)C(=O)NC(C)c1ccccc1 (stereo not drawn) | inactive: 3.95% | –
16 | O=C(Cc1ccc(Cl)cc1)N1CCN(C(=O)c2ccco2)CC1 | – | inconclusive: 0.199 µM [inhibitor, full curve]
17 | Nc1ccc(CC2SC(=O)NC2=O)cc1 (stereo not drawn) | inactive: 0.156% | –
18 | Cc1ccc(-c2cc(C(F)(F)F)c(C#N)c(SCCC#N)n2)o1 | – | inconclusive: 25.1 µM [inhibitor, single point]
19 | OCC1OC([S-])[C@H](O)C(O)C1O.[Au+] (stereo partly drawn) | – | inconclusive: 39.8 µM [inhibitor, single point]
20 | CSCC[C@H](NC(=O)c1ccc(Cl)c(S(=O)(=O)N2CCCC2)c1)c1nc2ccccc2[nH]1 | inactive: 4.11% | –
21 | Cc1ccc2ncccc2c1NS(=O)(=O)c1ccccc1 | – | inconclusive: 39.8 µM [inhibitor, single point]
22 | Cc1nc(NCc2ccccc2)c2nc(-c3ccccc3)n(CC(C)(C)CN(C)C)c2n1 | inactive: 47.7% | –
23 | O=C(CSc1nnnn1-c1cccnc1)Nc1ccc(OCc2ccccc2)cc1 | – | inconclusive: 25.1 µM [inhibitor, single point]
24 | COCCOC(=O)c1sc(=S)n(CCOC)c1N | – | inconclusive: 15.8 µM [inhibitor, partial curve]

Row | Compound | activity change, negative = inhibition | Potency
25 | O=C(COc1ccccc1C(=O)N/N=C\c1ccc(O)c(O)c1)N/N=C/c1ccc(O)c(O)c1 | – | inconclusive: 25.1 µM [inhibitor, partial curve]
26 | CC(/C=C/C=C(C)/C=C/C(=O)O)=C\C=C\C=C(C)\C=C\C=C(C)\C=C\C(=O)O | – | inconclusive: 31.6 µM [inhibitor, partial curve]
27 | COCC(=O)N1CCC2(CCCN(Cc3ccccc3OC)C2)CC1 | inactive: 0.688% | –
28 | Nc1nonc1-c1nc2ccccc2n1CC(=O)N/N=C\c1ccc(-c2ccc(Cl)cc2)o1 | – | inconclusive: 12.6 µM [inhibitor, partial curve]
29 | COc1ccc(-n2[nH]c(C)cc2=O)cc1 | – | inconclusive: 15.8 µM [inhibitor, partial curve]
30 | C=C1C(N)CC2CC1C2(C)C (stereo not drawn) | inactive: -3.3% | –
31 | Cc1ccc(/C=N/Nc2cccc3cccnc23)c(O)c1 | – | inconclusive: 10 µM [inhibitor, partial curve]
32 | COc1cccc2c1C(=O)c1c(O)c3c(c(O)c1C2=O)C[C@@](O)(C(=O)CO)C[C@H]3O[C@H]1C[C@@H](N)[C@H](O)[C@@H](C)O1.[W] | inactive: -4.02% [at 11.4 µM] | –
33 | COc1ccccc1C1Nc2cccc3cccc(c23)N1 | – | inconclusive: 12.6 µM [inhibitor, partial curve]
34 | CC(=O)/C(=N\Nc1ccc(C)cc1)N1CCOCC1 | – | inconclusive: 10 µM [inhibitor, partial curve]
35 | C=CCNC(=S)N/N=C/c1ccc(OCc2ccccc2Cl)cc1 | – | inconclusive: 25.1 µM [inhibitor, partial curve]
36 | COc1ccc(N=NC2=C(O)CC(C)(C)CC2=O)cc1 | – | inconclusive: 25.1 µM [inhibitor, partial curve, poor fit]
37 | CC(C)OC(=O)c1cn(-c2ccccc2)nc1-c1ccco1 | – | inconclusive: 15.8 µM [inhibitor, partial curve]
38 | c1ccc2c(c1)nnn2Cc1nnc2sc(-c3ccncc3)nn12 | inactive: -11.7% | –
39 | Cc1cccc(-n2nnnc2SCC(=O)c2cc(C)n(Cc3ccco3)c2C)c1 | – | inconclusive: 25.1 µM [inhibitor, single point]
40 | CC(C)=CCCC1(C)C=Cc2c(O)c3c(c(CC=C(C)C)c2O1)OC12C(=CCCC1C(C)(C)O[C@@]2(C/C=C(\C)C(=O)O)C(=O)O)C3=O (stereo partly drawn) | – | inconclusive: 25.1 µM [inhibitor, single point]
41 | O=S(=O)(c1ccc(-c2csc(-c3cccnc3)n2)cc1)N1CCCC1 | inactive: 3.92% | –
42 | COc1ccc(C(=O)NCCCN2CCOCC2)cc1OC | – | inconclusive: 0.158 µM [inhibitor, full curve]
43 | N#Cc1c(Sc2ncc(C(F)(F)F)cc2Cl)nsc1C/C=N\OCc1ccccc1Br | – | active: 12.6 µM
44 | C=CCn1c(COc2ccccc2-c2ccccc2)nnc1SCC(=O)NC(=O)NCc1ccco1 | – | inconclusive: 25.1 µM [inhibitor, single point]
45 | CCCOc1cccc(-c2cc(-c3n[nH]c(=S)n3CC)c3ccccc3n2)c1 | – | inconclusive: 10 µM [inhibitor, partial curve]
46 | CCOC(=O)c1c(C)c(C(=O)NC(C)COC)c(C)n1C (stereo not drawn) | inactive: 3.05% | –
47 | O=c1c(-c2cc(F)cc(F)c2)nc2cnc(N3CCOCC3)nc2n1C1CC1 | inactive: -3.12% | –
48 | COc1ccc(CNC(=S)Nc2cccc(C)c2)cc1 | – | inconclusive: 25.1 µM [inhibitor, single point]
